Experimental data published in US20250064779A1, “COMPOSITIONS AND METHODS FOR THE TREATMENT OF DEPRESSION” (Janssen Pharmaceuticals, Inc., priority 2022, published 2025).
Read-outs that look alike come from different tables or passages of the source.

Assays:
[1] = tested on: subjects with MDD who have had an inadequate response to SSRI/SNRI treatment; assay: Treatment-emergent adverse events, full safety analysis set, Example 1; format: in vivo, human
[2] = tested on: subjects with MDD who have had an inadequate response to SSRI/SNRI treatment; conditions: eITT
[3] = 10 mg (N = 85), treatment period, full safety analysis set
[4] = TEAE of special interest, 10 mg (N = 85), treatment period, full safety analysis set
[5] = Table 24, TEAE in >=5% of subjects in either group, 10 mg (N = 85), full safety analysis set
[6] = high anhedonia (SHAPS >=38 at treatment baseline), Treatment Week 1
[7] = high anhedonia (SHAPS >=38 at treatment baseline), Treatment Week 3
[8] = high anhedonia (SHAPS >=38 at treatment baseline), Treatment Week 4
[9] = high anhedonia (SHAPS >=38 at treatment baseline), Treatment Week 5
[10] = high anhedonia (SHAPS >=38 at treatment baseline), Treatment Week 6

## Cc1cc(C)cc(C2CCCN2Cc2ccc(Oc3ccc(C(N)=O)cc3F)cc2)c1 (stereo not shown) [aticaprant, 3-fluoro-4-4-2-(3,5-dimethylphenyl)pyrrolidin-1-yl-methylphenoxybenzamide]
[1]; [3]
  Subjects with 1 or more TEAE: 40 (47.1) n (%)
  Subjects with 1 or more serious TEAE: 0 n (%)
  Subjects with TEAE leading to death: 0 n (%)
  Subjects with TEAE leading to discontinuation of agent: 1 (1.2) n (%)
  Total subjects affected by non-serious adverse events: 23 (27.1%) n (%)
[1]; 10 mg (N = 85), treatment period, full safety analysis set, relationship possible, probable, very likely
  Subjects with drug-related TEAE: 20 (23.5) n (%)
[1]; [4]
  TEAE of special interest: Abdominal Pain: 1 (1.2) n (%)
  TEAE of special interest: Abdominal Pain Upper: 0 n (%)
  TEAE of special interest: Diarrhea: 7 (8.2) n (%)
  TEAE of special interest: Dyspepsia: 1 (1.2) n (%)
  TEAE of special interest: Gastrointestinal Disorders: 9 (10.6) n (%)
  TEAE of special interest: Pruritus: 5 (5.9) n (%)
  TEAE of special interest: Skin And Subcutaneous Tissue Disorders: 5 (5.9) n (%)
  Total no. Subjects with Adverse Events of Special Interest: 13 (15.3) n (%)
[1]; [5]
  TEAE: Diarrhea: 7 (8) n (%)
  TEAE: Gastrointestinal Disorders: 12 (14) n (%)
  TEAE: Headache: 10 (12) n (%)
  TEAE: Infections And Infestations: 13 (15) n (%)
  TEAE: Nasopharyngitis: 5 (6) n (%)
  TEAE: Nervous System Disorders: 13 (15) n (%)
  TEAE: Pruritus: 5 (6) n (%)
  TEAE: Skin And Subcutaneous Tissue Disorders: 6 (7) n (%)
  Total no. Subjects with Adverse Events: 40 (47) n (%)
[1]; due to diarrhea, nausea, vomiting and headache
  subjects who discontinued during the treatment period due to treatment-emergent adverse events: 1 subject
[1]; full safety analysis set, 7/85 subjects
  TEAE diarrhea during the treatment period: 8.2%
[1]; full safety analysis set, 10/85 subjects
  TEAE headache during the treatment period: 11.8%
[1]; full safety analysis set, 13/85 subjects
  subjects who experienced TEAEs of special interest during the treatment period: 15.3%
[1]; full safety analysis set, 40/85 subjects
  subjects who experienced at least one TEAE during the treatment period: 47.1%
[1]; treatment period
  patients who experienced acute cholecystitis: 0 patients
[2]; Treatment Week 1, 10 mg adjunctive to SSRI/SNRI
  MADRS Total Score: Mean Change to Placebo (SD pooled): −1.1 (4.52)
[2]; Treatment Week 1, MMRM
  MADRS Total Score: LSMean Difference (SE) Treatment-Placebo: −1.2
[2]; Treatment Week 3, 10 mg adjunctive to SSRI/SNRI
  MADRS Total Score: Mean Change to Placebo (SD pooled): −1.4 (6.18)
[2]; Treatment Week 3, MMRM
  MADRS Total Score: Change from Baseline LSMean (SE): −5.6
  MADRS Total Score: LSMean Difference (SE) Treatment-Placebo: −1.5
[2]; Treatment Week 4, 10 mg adjunctive to SSRI/SNRI
  MADRS Total Score: Mean Change to Placebo (SD pooled): −0.9 (7.00)
[2]; Treatment Week 4, MMRM
  MADRS Total Score: Change from Baseline LSMean (SE): −7.3
  MADRS Total Score: LSMean Difference (SE) Treatment-Placebo: −1.1
[2]; Treatment Week 5, 10 mg adjunctive to SSRI/SNRI
  MADRS Total Score: Mean Change to Placebo (SD pooled): −1.1 (7.25)
[2]; Treatment Week 5, MMRM
  MADRS Total Score: Change from Baseline LSMean (SE): −8.7
  MADRS Total Score: LSMean Difference (SE) Treatment-Placebo: −1.5
[2]; Treatment Week 6, 10 mg adjunctive to SSRI/SNRI
  MADRS Total Score: Mean Change to Placebo (SD pooled): −2.0 (8.49)
[2]; Treatment Week 6, MMRM
  MADRS Total Score: Change from Baseline LSMean (SE): −10.1
  MADRS Total Score: LSMean Difference (SE) Treatment-Placebo: −2.1
[2]; Treatment Week 6, high anhedonia level (SHAPS total score ≥38) at treatment baseline, n=53
  MADRS total score: difference between aticaprant and placebo: −3.4
[2]; Treatment Week 6, high anhedonia level (SHAPS ≥38)
  MADRS total score: observed effect size: 0.38
[2]; Treatment Week 6, low anhedonia level (20≤SHAPS<38)
  MADRS total score: observed effect size: 0.11
[2]; Treatment Week 6, low anhedonia level (20≤baseline SHAPS total score <38), n=65
  MADRS total score: difference between aticaprant and placebo: −0.9
[2]; data collected prior to 15 Mar. 2020, MMRM
  MADRS total score: LSMeans difference estimate vs placebo, supplementary analysis (COVID-19 impact): −3.0
[2]; [6]
  MADRS Total Score: Effect size vs placebo: −0.39
  MADRS Total Score: Mean Change from Baseline (SD): −4.6 (5.25)
  MADRS Total Score: Mean Change to Placebo (SD pooled): −1.8 (4.69)
[2]; [7]
  MADRS Total Score: Effect size vs placebo: −0.46
  MADRS Total Score: Mean Change from Baseline (SD): −6.7 (6.83)
  MADRS Total Score: Mean Change to Placebo (SD pooled): −3.0 (6.59)
[2]; [8]
  MADRS Total Score: Effect size vs placebo: −0.30
  MADRS Total Score: Mean Change from Baseline (SD): −8.5 (7.26)
  MADRS Total Score: Mean Change to Placebo (SD pooled): −2.2 (7.30)
[2]; [9]
  MADRS Total Score: Effect size vs placebo: −0.33
  MADRS Total Score: Mean Change from Baseline (SD): −9.7 (8.18)
  MADRS Total Score: Mean Change to Placebo (SD pooled): −2.6 (7.93)
[2]; [10]
  MADRS Total Score: Effect size vs placebo: −0.38
  MADRS Total Score: Mean Change from Baseline (SD): −11.5 (8.95)
  MADRS Total Score: Mean Change to Placebo (SD pooled): −3.4 (8.98)
[2]; low anhedonia (SHAPS >=20 and <38 at treatment baseline), Treatment Week 1
  MADRS Total Score: Effect size vs placebo: −0.12
